# Measurements from the supplement of paper PMC11417369.
# ± gives the standard deviation of the averaged measurements. This is one part of the list.
# Tested on: PfAP2-EXP AP2 domain (GST-tagged)
# Experiment: gcPBM binding intensity (ln(normalized median fluorescence intensity)); higher = stronger DNA binding
# How it was run: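 An Agilent 4 × 180k array carrying primer-extended double-stranded 36-bp intergenic genomic probes and negative controls received GST-tagged P. falciparum DNA-binding domains expressed in E. coli, about 25 μg on average, for 1 h. The binding buffer contained 1× PBS, 1% milk, 0.2 mg/ml BSA, 0.5% salmon testes DNA and 0.03% Triton X-100. Binding intensity is the top Masliner-normalised natural-log median intensity across replicate spots of either probe orientation, read after Alexa488 anti-GST antibody staining and a 488 nm scan.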
row,Sequence,gcPBM binding intensity (ln)
1,ATTCTAAATAATAAGAGTACAAATAATATGGAGAAG [XGTACX_site5209],9.12 ± 0.51
2,ATATGAACATTTACATGTACATGTAAATGTAACACT [XGTACX_site4574],8.71 ± 0.37
3,TGCTCATTCCTGTCATGTACATATTATATATATATA [XGTACX_site6890],9.8 ± 0.099
4,GAAAATATGTAATAGTGTACACATATATATGTATAT [XGTACX_site306],8.76 ± 0.18
5,ACTCCATAATATTGATGTACTATAATGCATTTATTT [XGTACX_site5562],8.95 ± 0.34
6,TATTTATTTTCATATAGTACTTTTTTCAGGCATATA [XGTACX_site6691],8.6 ± 0.39
7,TTATAGAATTTATTTACACACAAACATTTATACTTT [CACACA_site7592],8.39 ± 0.38
8,TTCAAAAGCCGGATAACATGCAGTAGTAGAACAAAC [TGCATGCA_site413],9.66 ± 0.46
9,TTTATTTATGTTGAAACATGCAAAAAGTTATTTATA [TGCATGCA_site716],8.36 ± 0.36
10,AAATTAAAAAAATAATGTACATGTATTTATTATGTA [XGTACX_site2419],8.47 ± 0.4
11,TTTATTTATTATTAAAGTACTAAATCATATAATTAT [XGTACX_site5727],8.1 ± 0.3
12,TTGTTTTTTTTTTCTATAAGCATAAAAATGATATAA [XGTACX_negctrl_site356],8.12 ± 0.42
13,TTTCTGTGTTTTGGTTGTACACACGCTACATTATAT [XGTACX_site5669],9.35 ± 0.58
14,TAAAACAATACTTTGTGCTTCTCTGGTTTTTTTTTT [GTGCAC_negctrl_site284],8.5 ± 0.49
15,GCTTTTAAAATAATTGGTACACATGTATAAATTCAA [XGTACX_site2327],8.6 ± 0.22
16,AGTATTCACTTAATATGTACATATTTATTATAAGAG [XGTACX_site3434],8.56 ± 0.35
17,TTTTATTTCTTTGCACCATTTTAAATACAAACAAAT [CACACA_negctrl_site1553],9.075 ± 0.035
18,TTTTGCCTTTCTACTTGTACTTAAAATATTATAATT [XGTACX_site5483],9.13 ± 0.52
19,TGGTATATAAAACACACACACATATGTATTTATATA [CACACA_site4665],8.54 ± 0.38

row,Sequence,gcPBM binding intensity (ln)
1,CAAAAGCGATACGGCACACATTTCCTGTTTAAATGA [CACACA_site5519],8.61 ± 0.27
2,TTAATTTTTAGAAGAACACACACATATATATTATGA [CACACA_site7969],8.37 ± 0.51
3,AAATTGATTATAAATTGTACAAGAACATACAACCTT [XGTACX_site5986],8.36 ± 0.4
4,TCATATAGATTATACACACACATATATAGATATATA [CACACA_site6587],8.38 ± 0.28
5,TTATATTTCAATTAAACATGCATTTTTGTGTAGCAC [TGCATGCA_site214],9.1 ± 0.13
6,TTATATATTTTATTATTTATAATCTTTTTTTTATTT [CACACA_negctrl_site112],8.29 ± 0.32
7,CATTTTTTAATAATAGCACACAGGACATACAAAACA [CACACA_site1245],9.06 ± 0.4
8,ACAGTATCTGGTAGCTGTACGAGTCGTAGAGTGTAG [XGTACX_site2011],8.98 ± 0.45
9,AATATATAAATAAATATATAAATAAATAATTGAAGC [CACACA_negctrl_site348],8.73 ± 0.45
10,TTCATTAATGTGTAATGTACTTGTAATATGGGATTA [XGTACX_site3903],8.49 ± 0.31
11,AAAATATAAAGTATTTGTACATAATATATTTTTAAA [XGTACX_site3494],8.13 ± 0.38
12,TGTTCTCTTCTTTTTTATTTTCCAAAGTAATAAGTT [TGCATGCA_negctrl_site424],8.78 ± 0.4
13,TATATATATTTATATGCATGTAATATATTTGTATTG [TGCATGCA_site323],8.71 ± 0.3
14,AGAAAAAAGAGGGATACACACAAACATATATATATA [CACACA_site5269],9.91 ± 0.28
15,CATAAATCAGCCATAACACACATACATAAATACATA [CACACA_site4380],8.6 ± 0.45
16,TTAATTATAATTATATGTACGAACTTTTTTTTTTTT [XGTACX_site6586],8.29 ± 0.39
17,TAAATAAGTATTACTAGTACACACAAGTTGTTAATC [XGTACX_site7074],8.57 ± 0.28
18,AATTATTTTATGAAAAGTACACATTGTTTTAATTCT [XGTACX_site4506],8.38 ± 0.34
19,ATAGAATATTTTATTACACACAGAATAATAAAAAAT [CACACA_site6190],8.46 ± 0.46

row,Sequence,gcPBM binding intensity (ln)
1,CTAAAAGGATGATGAATGCACTATTATTTATATGGA,8.35 ± 0.21
2,TTATTTTTTTTAGCATATACAAATATATATATATAT [GTGCAC_negctrl_site4],9.96 ± 0.23
3,AAGAATTATTTTTTATGTACTTATATGTCAATTTTC [XGTACX_site6676],8.56 ± 0.42
4,GAAGGAAATAAATCAACACACATATATTATATATAT [CACACA_site2188],8.77 ± 0.11
5,TGTATTTATTAATGTACACACATGCGTATGTTCGTT [CACACA_site5892],8.82 ± 0.4
6,TATATAATATATTTATGTACGTATTTAAAAATTTAT [XGTACX_site160],8.53 ± 0.26
7,CATAAATATTTGTGTTGTACAAATATATATATTTAT [XGTACX_site7363],8.51 ± 0.3
8,TGAAATTTGTTATATGCATGTAAAATATTACGACGA [TGCATGCA_site201],8.79 ± 0.36
9,TTGTGTGAGCAAGTAGTGCATAATATAAATAAAAAA [GTGCAC_site9802],9.12 ± 0.14
10,AAAATTGAAGGTAGAAGTACATATTTATTTCAATAA [XGTACX_site8732],8.51 ± 0.44
11,ATTGTGGATATTCTTACACACAAATTTATATATAAA [CACACA_site2601],8.37 ± 0.49
12,ATATTCTAAATAAAGGGTACACAAAAATAATTAAAG [XGTACX_site5529],8.88 ± 0.47
13,TTATGAATACTTCAAGTGCATTTATTTTATATGACA,8.48 ± 0.27
14,TTTTGTATATTATATGTACACACAATAAGTTAATAT [CACACA_site8207],8.54 ± 0.28
15,TATTTGTAATATTATACACACATTATGTATTACAAA [CACACA_site3386],8.56 ± 0.38
16,ATATATATATAAAGCAGTACACACATTTATTTTAGA [XGTACX_site7226],9.71 ± 0.12
17,TATGAACTTTTGGGGGTGCCTTAAAATGTATATTCT,9.43 ± 0.42
18,TATCAAAGTAGAAGAGATCGATGTCATATTGTGATG [GTGCAC_negctrl_site42],8.84 ± 0.53
19,TCCCAATTTATTATGTGTACTTATTATATACATATA [XGTACX_site4033],8.71 ± 0.26
